In the antibiotic and cytotoxicity screens of Wong et al. (2023):
The other results are listed elsewhere or left out.

Tested on: S. aureus RN4220
Test: growth inhibition call (relative growth <= 0.2)
Conditions: 50 µM

Growth inhibition call, inactive:
CO[C@@H]1CN(C)C(=O)c2ccc(NC(=O)Nc3ccc(Cl)cc3)cc2OC[C@H](C)N(C(=O)Nc2c(C)noc2C)C[C@@H]1C
C[C@@H]1CCCCO[C@H](CN(C)CC2CCCCC2)[C@@H](C)CN([C@H](C)CO)C(=O)c2cc(NC(=O)CCC(F)(F)F)ccc2O1
COc1ccc(NC(=O)Nc2cccc3c2O[C@H](CN(C)Cc2ccc(Oc4ccccc4)cc2)[C@H](C)CN([C@H](C)CO)C3=O)cc1
O.O=C([O-])CC(O)(CC(=O)[O-])C(=O)[O-].[Li+].[Li+].[Li+]
C[C@H]1CC=CC[C@H](c2ccc3c(c2)OCO3)NC(=O)[C@@H](Cc2ccccc2)N(C)C(=O)c2ccccc2O1
O=C(O)c1ccc(-c2ccccc2)cc1
Cc1ccc(S(=O)(=O)N(C)C[C@H]2OCCCC[C@@H](C)Oc3ccc(NS(=O)(=O)c4ccc(F)cc4)cc3C(=O)N([C@H](C)CO)C[C@H]2C)cc1
NC(=O)CCN1CCn2c1nc1ccccc12
CCNC(=O)C[C@@H]1CC[C@H](NC(=O)C2CCOCC2)[C@H](CO)O1
NC[C@@H]1CC(=O)N(Cc2ccccc2)C1
C[C@@H]1CN([C@@H](C)CO)C(=O)c2cccc(NC(=O)Nc3ccccc3)c2O[C@H]1CN(C)Cc1ccc(Oc2ccccc2)cc1
COc1ccc(NC(=O)Nc2ccc3c(c2)C(=O)N([C@@H](C)CO)C[C@@H](C)[C@@H](CN(C)S(=O)(=O)c2ccc(F)cc2)OCCCC[C@@H](C)O3)cc1
Cc1noc(C)c1S(=O)(=O)Nc1ccc2c(c1)C(=O)N([C@H](C)CO)C[C@@H](C)[C@@H](CN(C)C(=O)Nc1cccc3ccccc13)OCCCC[C@@H](C)O2
COC(=O)[C@@H](N)Cc1ccc(O)c(O)c1
COc1ccc(CN(C)C[C@@H]2Oc3ccc(NC(=O)Nc4cccc5ccccc45)cc3C(=O)N([C@H](C)CO)C[C@H]2C)cc1
C[C@@H]1CN([C@@H](C)CO)C(=O)c2cc(NC(=O)Nc3ccc(C(F)(F)F)cc3)ccc2O[C@@H]1CN(C)S(C)(=O)=O
C[C@@H]1CCCCO[C@@H](CN(C)C(=O)NC2CCCCC2)[C@H](C)CN([C@H](C)CO)C(=O)c2cc(NC(=O)Nc3cccc4ccccc34)ccc2O1
C[C@@H]1CN([C@H](C)CO)C(=O)CCCn2nncc2CO[C@H]1CN(C)S(=O)(=O)c1cn(C)cn1
CC(C)C[C@H](N)C(=O)O
C[C@@H]1CN([C@@H](C)CO)C(=O)c2cccc(NC(=O)Nc3cccc4ccccc34)c2O[C@H]1CN(C)S(=O)(=O)c1ccc2ncsc2c1
O=C(NCc1ccccn1)C1CCNCC1
CN(CC(=O)Nc1cccc(S(=O)(=O)N2CCOCC2)c1)CC(=O)Nc1ccc(Cl)c(C(F)(F)F)c1
COCC#Cc1ccc2c(c1)O[C@H](CN(C)Cc1ccccc1F)[C@@H](C)CN([C@H](C)CO)S2(=O)=O
C[C@H]1CCCCO[C@@H](CN(C)Cc2ccc(C(F)(F)F)cc2)[C@@H](C)CN([C@@H](C)CO)C(=O)c2cc(NS(C)(=O)=O)ccc2O1
C[C@@H]1CN([C@H](C)CO)S(=O)(=O)c2ccc(C#Cc3cccc(F)c3)cc2O[C@@H]1CN(C)CC1CC1
COc1ccc(Oc2cc(NCCC(F)(F)F)c3ncc(-c4ccc(C(=O)NC5CC5)c(C)c4)n3n2)c(F)c1F
Cc1ccccc1S(=O)(=O)N1C[C@H](O)COC[C@H]2O[C@@H](CC(=O)NCCc3ccccc3)CC[C@@H]21
C[C@@H]1CN([C@H](C)CO)C(=O)c2cc(NS(=O)(=O)c3ccccc3)ccc2O[C@@H]1CN(C)S(=O)(=O)c1ccc(F)cc1
O=C(NCc1nc2ccccc2[nH]1)C1=C[C@H](c2ccc(C(F)(F)F)cc2)C[C@H](OCc2ccc(CO)cc2)O1
